# Reference: the supplement of paper PMC10723795
# Where a name gives a salt, the structure may show the parent alone. The list shows a part of the results.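 How the source made its calls: active = more than 2 SD below the DMSO mean: under 0.85 at 10 µM or 0.885 at 1 µM; inactive = the rest.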 Most values come without repeats; read them as rough.
# System: RPE1
# Assay: nucleolar normality score relative to DMSO (fraction of DMSO control); RPE1 is a non-cancer human cell line; higher = more normal nucleoli (less nucleolar stress)
# Conditions: 24 h
# 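Further: fixed cells immunolabelled for nucleolin and UBF, 40 image fields per well in 384-well plates, per-cell score = nucleolin nucleolar/nucleoplasm intensity ratio divided by the matching UBF ratio.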
Structure (SMILES),nucleolar normality score (1 µM),nucleolar normality score (10 µM)
Clc1ccc2nsnc2c1NC1=NCCN1 [Tizanidine],inactive: 1.03,inactive: 1.06
Nc1nc(OCc2cc(Br)cs2)c2[nH]cnc2n1 [Lomeguatrib],inactive: 1.04,inactive: 1.06
CC(C)c1c2cc(-c3ccnc(NC4CCC(NC5CCOCC5)CC4)n3)ccc2nn1C (stereo not drawn),active: 0.189,active: 0.143
N#Cc1ccc2ncnc(NCCc3ccccc3)c2c1 [Senexin A],inactive: 0.992,inactive: 0.987
O=[N+]([O-])c1ccc(Nc2nc(N3CCOCC3)nc(N3CCOCC3)n2)cc1,inactive: 1.07,inactive: 1.08
Cc1ccc(S(=O)(=O)Nc2nc3ccccc3nc2Nc2ccc3nsnc3c2)cc1 [XL147 analogue],inactive: 0.982,inactive: 1.02
CCOC(=O)C1=C(N)Oc2ccc(Br)cc2C1C(C#N)C(=O)OCC (stereo not drawn),inactive: 1.01,inactive: 1.01
Cc1c(-c2ccc(O)cc2)n(Cc2ccc(OCCN3CCCCCC3)cc2)c2ccc(O)cc12 [Bazedoxifene Acetate],inactive: 1.09,inactive: 1.11
O=C1C(Cl)=C(N2CCOCC2)C(=O)N1c1ccc(Cl)c(Cl)c1,inactive: 1.08,inactive: 1.09
Cc1ccc(-c2cc(C(F)(F)F)nn2-c2ccc(S(N)(=O)=O)cc2)cc1 [Celecoxib],inactive: 1.07,inactive: 1.05
CCn1c(N)c(C(=O)NC)c(=O)c2ccc(C#CC(C)(O)COC)nc21 (stereo not drawn),inactive: 1.08,inactive: 0.879
CCOC(=O)C1=C(C)NC(=S)NC1c1cccc(O)c1 (stereo not drawn) [Monastrol],inactive: 0.999,inactive: 1.05
Cc1cc(O)c(-c2ccc(C(C)CN)cc2)c2c1[nH]c(=O)c1sccc12 (stereo not drawn) [OTS514 hydrochloride],active: 0.23,active: 0.199
COc1ccc2c(c1)[C@]1(C[C@H]1c1ccc3c(/C=C/c4ccc(CN5C[C@@H](C)O[C@@H](C)C5)cc4)n[nH]c3c1)C(=O)N2,inactive: 0.927,inactive: 0.924
OCCn1cc(-c2ccc3c(c2)CC/C3=N\O)c(-c2ccncc2)n1,inactive: 1.04,inactive: 1.04
Nc1nc2c(cnn2CCc2ccccc2)c2nc(-c3ccco3)nn12,inactive: 0.986,inactive: 0.972
COc1cc2nccc(Oc3ccc(NC(=O)c4cn(C(C)C)c(=O)n(-c5ccc(F)cc5)c4=O)cc3F)c2cc1OC,inactive: 0.942,inactive: 1.04
CNC(=O)c1c(F)cccc1Nc1nc(Nc2cc3c(cc2OC)CCN3C(=O)CN(C)C)nc2[nH]ccc12,inactive: 1.01,inactive: 0.885
NC[C@H]1O[C@H](O[C@H]2[C@H](O)[C@@H](O[C@H]3O[C@H](CO)[C@@H](O)[C@H](N)[C@H]3O)[C@H](N)C[C@@H]2N)[C@H](N)C[C@@H]1O [Tobramycin sulfate],inactive: 1.05,active: 0.514
O=C(/C=C/c1cccc(S(=O)(=O)Nc2ccccc2)c1)NO [Belinostat (PXD101)],inactive: 0.984,inactive: 1.06

Structure (SMILES),nucleolar normality score (1 µM),nucleolar normality score (10 µM)
CC(C)(C)c1cc(NC(=O)Nc2ccc(-c3cn4c(n3)sc3cc(OCCN5CCOCC5)ccc34)cc2)no1 [Quizartinib (AC220)],inactive: 1.01,inactive: 1.02
O=c1c(O)c(-c2ccc(O)cc2)oc2cc(O)cc(O)c12 [Kaempferol],inactive: 0.993,inactive: 0.864
NC[C@@](O)(c1ccc(Cl)cc1)c1ccc(-c2cn[nH]c2)cc1,inactive: 0.969,inactive: 0.891
CC(C)NC(=O)C1CCC(n2c(NC(=O)c3ccc(F)cc3)nc3ccc(CN4CCC(C(C)(C)O)CC4)cc32)CC1 (stereo not drawn) [Belizatinib (TSR-011)],inactive: 1.04,inactive: 1.07
N#C/C(=C(/N)Sc1ccc(N)cc1)c1ccccc1C(F)(F)F,inactive: 1.02,inactive: 1.08
CCCc1ccc(OCC(=O)N(Cc2nc(-c3cccnc3)no2)C(C)C)cc1,inactive: 0.905,inactive: 0.96
CNC(=O)c1ccc(N2C(=S)N(c3ccc(C#N)c(C(F)(F)F)c3)C(=O)C2(C)C)cc1F [Enzalutamide (MDV3100)],inactive: 1.06,inactive: 1.14
CC(=O)Nc1nc(-c2cccc(NS(=O)(=O)c3cccc4c(N(C)C)cccc34)c2)cs1,inactive: 1.01,inactive: 1.01
COC(=O)[C@H](CC(C)C)NC(=O)c1ccc(NC[C@@H](N)CS)cc1-c1cccc2ccccc12 [GGTI 298 TFA salt],inactive: 0.952,inactive: 0.987
CC#C[C@]1(O)CC[C@H]2[C@@H]3CCC4=CC(=O)CCC4=C3[C@@H](c3ccc(N(C)C)cc3)C[C@@]21C [Mifepristone],inactive: 1.09,inactive: 1.1
CC[C@@H]1C(=O)N(C)c2cnc(Nc3ccc(C(=O)N[C@H]4CC[C@H](N5CCN(CC6CC6)CC5)CC4)cc3OC)nc2N1C(C)C [Volasertib (BI 6727)],inactive: 0.949,inactive: 0.93
COC(=O)N[C@@H](C)CNc1nccc(-c2cn(C(C)C)nc2-c2cc(Cl)cc(NS(C)(=O)=O)c2F)n1 [Encorafenib (LGX818)],inactive: 1,active: 0.838
CC(O)c1cc(C(=O)N[C@@H](C)Cn2ccc(-c3ccc(C#N)c(Cl)c3)n2)n[nH]1 (stereo partly drawn) [Darolutamide (ODM-201)],inactive: 1.02,inactive: 1.04
CCCCCCNC(=O)n1cc(F)c(=O)[nH]c1=O [Carmofur],inactive: 0.911,inactive: 1.06
COc1cccc2c1C(=O)c1c(O)c3c(c(O)c1C2=O)C[C@@](O)(C(=O)CO)C[C@@H]3O[C@H]1C[C@H](N)[C@H](O[C@@H]2CCCCO2)[C@H](C)O1 [Pirarubicin],active: 0.259,active: 0.166
COCCCc1sc(-c2ccccc2)nc1C(=O)Nc1ccccc1-c1nc2cc(CN3CCCC3)cnc2s1,inactive: 0.994,inactive: 1.01
CCOC(=O)C1=C(N)Oc2ccc(Cl)cc2C1C(C#N)C(=O)OCC (stereo not drawn),inactive: 1,inactive: 0.977
Cc1nc(C(=O)NCC(=O)O)c(O)c2ccc(Oc3ccccc3)cc12 [Roxadustat (FG-4592)],inactive: 0.934,inactive: 1.08
CC[C@H](NC(=O)[C@H](C)NC)C(=O)N1C[C@@H](O)C[C@H]1Cc1c(-c2[nH]c3cc(F)ccc3c2C[C@@H]2C[C@H](O)CN2C(=O)[C@H](CC)NC(=O)[C@H](C)NC)[nH]c2cc(F)ccc12 [Birinapant],inactive: 1.06,inactive: 0.936
C/C=C\c1ccc(OC)cc1 [cis-Anethole],inactive: 0.927,inactive: 0.96

Structure (SMILES),nucleolar normality score (1 µM),nucleolar normality score (10 µM)
O=c1cc(-c2ccccc2)oc2ccccc12 [Flavone],inactive: 1.1,inactive: 0.918
C[C@H]1[C@H](C)CC[C@]2(C(=O)O)CC[C@]3(C)C(=CC[C@@H]4[C@@]5(C)CC[C@H](O)C(C)(C)[C@@H]5CC[C@]43C)[C@H]12 [Ursolic Acid],inactive: 1.01,inactive: 0.869
NC(=O)Nc1cc(-c2cccc(F)c2)sc1C(=O)N[C@H]1CCCNC1,inactive: 1.05,inactive: 1.09
Nc1nccc(Oc2ccc(NC(=O)c3c[nH]cc(-c4ccc(F)cc4)c3=O)cc2F)c1Cl,inactive: 1.01,inactive: 1.08
Cc1nc2c(-c3cnc(N)nc3)nc(N3CCOCC3)nc2n1C(C)C,inactive: 0.974,active: 0.719
CC(C)c1ccccc1Cc1cc(C(=O)Nc2ccc(S(=O)(=O)c3ccccc3C(C)(C)C)cc2)c(O)c(O)c1O,inactive: 1.02,inactive: 1.05
CN(C)S(=O)(=O)c1ccc2c(c1)/C(=C/c1cc3c([nH]1)CCCC3)C(=O)N2,inactive: 1.08,inactive: 1.09
C[C@]12C=CC(=O)N[C@@H]1CC[C@@H]1[C@@H]2CC[C@]2(C)[C@@H](C(=O)Nc3cc(C(F)(F)F)ccc3C(F)(F)F)CC[C@@H]12 [Dutasteride],inactive: 1.03,inactive: 1.04
Nc1ccccc1NC(=O)c1cnccn1,inactive: 1.03,inactive: 1.09
COc1ccc(Cl)c(Nc2nc3ccccc3nc2NS(=O)(=O)c2cccc(NC(=O)C(C)(C)N)c2)c1 [Pilaralisib (XL147)],inactive: 0.948,inactive: 1.02
O=C(Cc1ccccc1)Nc1nnc(CCSCCc2nnc(NC(=O)Cc3ccccc3)s2)s1,inactive: 1.06,inactive: 1
Cc1cnc(Nc2ccc(OCCN3CCCC3)cc2)nc1Nc1cccc(S(=O)(=O)NC(C)(C)C)c1,inactive: 0.968,active: 0.819
CC(C)Oc1ccc(-c2cnc3c(-c4ccnc5ccccc45)cnn3c2)cc1,inactive: 0.894,inactive: 1.03
c1ccc2c(CCNc3ccc(Nc4ccncc4)cc3)c[nH]c2c1,inactive: 1.05,inactive: 1.08
COc1c(C)cnc(Cn2cnc3c(Cl)nc(N)nc32)c1C,active: 0.396,active: 0.406
CN(C)C(=N)NC(=N)N [Metformin HCl],inactive: 1.01,inactive: 1.08
CC(C)c1cccc(O)c(=O)c1 [β-thujaplicin],inactive: 0.999,inactive: 0.911
Cc1csc(-c2nnc(Nc3ccc(Oc4ncccc4-c4ccnc(N)n4)cc3)c3ccccc23)c1,inactive: 0.98,inactive: 1.01
C=C1C(=O)O[C@@H]2C[C@@]3(C)CCCC(=C)[C@@H]3C[C@H]12 [Isoalantolactone],inactive: 0.985,inactive: 0.878
